# Laboratory results: patent publication US20180230235A1 (Affibody, published 2018)
# Changes are numbered by the printed parent chain.
# B1: Z06949 ABD fusion protein (designed binder, not shown: large carriers; small tags and cut ends)
# chain: VDAKYAKEWRWAGVEIQDLPNLTQQQRDAFIYKLWDDPSQSSELLSEAKKLNDSQAPK
# notes: periplasmic sample
# B2: Z07034 ABD fusion protein (designed binder, not shown: large carriers; small tags and cut ends)
# chain: B1 chain with R10W, W11Y, Q17A
# notes: periplasmic sample
# B3: Z06936 ABD fusion protein (designed binder, not shown: large carriers; small tags and cut ends)
# chain: VDAKYAKENLFAGWEIDDLPNLTEDQRNAFIYKLWDDPSQSSELLSEAKKLNDSQAPK
# notes: periplasmic sample
# B4: Z06932 ABD fusion protein (designed binder, not shown: large carriers; small tags and cut ends)
# chain: B3 chain with L10I, D17S, E24V, D25A, N28H
# notes: periplasmic sample
# B5: Z07022 ABD fusion protein (designed binder, not shown: large carriers; small tags and cut ends)
# chain: B3 chain with N9H, L10I, D17E, D25S
# notes: periplasmic sample
# B6: Z07024 ABD fusion protein (designed binder, not shown: large carriers; small tags and cut ends)
# chain: B3 chain with L10I, E24A, D25H, N28D
# notes: periplasmic sample
# B7: Z06977 ABD fusion protein (designed binder, not shown: large carriers; small tags and cut ends)
# chain: B3 chain with L10I, D17E, E24D, D25H, N28D
# notes: periplasmic sample
# B8: Z07096 ABD fusion protein (designed binder, not shown: large carriers; small tags and cut ends)
# chain: B3 chain with L10I, D18E, D25Y
# notes: periplasmic sample
# B9: Z06993 ABD fusion protein (designed binder, not shown: large carriers; small tags and cut ends)
# chain: B3 chain with L10I, D17R, E24D, D25Y
# notes: periplasmic sample
# B10: Z06994 ABD fusion protein (designed binder, not shown: large carriers; small tags and cut ends)
# chain: B3 chain with N9H, D18E, D25Q, N28H
# notes: periplasmic sample
# B11: Z07095 ABD fusion protein (designed binder, not shown: large carriers; small tags and cut ends)
# chain: B3 chain with N9H, L10W, F11A, D25F
# notes: periplasmic sample
# B12: Z06985 ABD fusion protein (designed binder, not shown: large carriers; small tags and cut ends)
# chain: B3 chain with L10I, D17E, E24D, D25H
# notes: periplasmic sample
# B13: Z06925 ABD fusion protein (designed binder, not shown: large carriers; small tags and cut ends)
# chain: B3 chain with E24W, D25Q, N28H
# notes: periplasmic sample
# B14: Z06999 ABD fusion protein (designed binder, not shown: large carriers; small tags and cut ends)
# chain: B3 chain with N9H, D17T, D25Q
# notes: periplasmic sample
# B15: Z07010 ABD fusion protein (designed binder, not shown: large carriers; small tags and cut ends)
# chain: B3 chain with L10I, D17G
# notes: periplasmic sample
# B16: Z07089 ABD fusion protein (designed binder, not shown: large carriers; small tags and cut ends)
# chain: B3 chain with L10I, D17T, E24V, D25Q, N28H
# notes: periplasmic sample
# B17: Z07066 ABD fusion protein (designed binder, not shown: large carriers; small tags and cut ends)
# chain: B3 chain with L10W, F11A, E24I
# notes: periplasmic sample
# B18: Z06954 ABD fusion protein (designed binder, not shown: large carriers; small tags and cut ends)
# chain: B3 chain with L10I, D17E, E24D, D25G
# notes: periplasmic sample
# B19: Z07052 ABD fusion protein (designed binder, not shown: large carriers; small tags and cut ends)
# chain: B3 chain with L10I, D17E, E24D, D25N, N28D
# notes: periplasmic sample
# B20: Z06924 ABD fusion protein (designed binder, not shown: large carriers; small tags and cut ends)
# chain: B3 chain with N9H, L10I, D17T, E24D
# notes: periplasmic sample
# B21: Z06996 ABD fusion protein (designed binder, not shown: large carriers; small tags and cut ends)
# chain: B3 chain with N9H, D17E, E24I
# notes: periplasmic sample
# B22: Z07112 ABD fusion protein (designed binder, not shown: large carriers; small tags and cut ends)
# chain: B3 chain with L10I, F11W, D25R
# notes: periplasmic sample
# B23: Z06976 ABD fusion protein (designed binder, not shown: large carriers; small tags and cut ends)
# chain: B3 chain with L10I, E24D, D25E
# notes: periplasmic sample
# B24: Z07077 ABD fusion protein (designed binder, not shown: large carriers; small tags and cut ends)
# chain: B3 chain with D17G
# notes: periplasmic sample
# B25: Z06923 ABD fusion protein (designed binder, not shown: large carriers; small tags and cut ends)
# chain: B3 chain with N9Q, D17S, D25Q, N28H
# notes: periplasmic sample
# B26: Z06962 ABD fusion protein (designed binder, not shown: large carriers; small tags and cut ends)
# chain: B3 chain with D17T, E24I, D25Q
# notes: periplasmic sample
# B27: Z07013 ABD fusion protein (designed binder, not shown: large carriers; small tags and cut ends)
# chain: B3 chain with N9Q, D25F
# notes: periplasmic sample
# B28: Z06959 ABD fusion protein (designed binder, not shown: large carriers; small tags and cut ends)
# chain: B3 chain with D17T, E24I, D25E
# notes: periplasmic sample
# B29: Z07000 ABD fusion protein (designed binder, not shown: large carriers; small tags and cut ends)
# chain: B3 chain with L10W, F11A, D17S, E24D, D25F
# notes: periplasmic sample
# B30: Z07091 ABD fusion protein (designed binder, not shown: large carriers; small tags and cut ends)
# chain: B3 chain with D25S
# notes: periplasmic sample
# B31: Z06971 ABD fusion protein (designed binder, not shown: large carriers; small tags and cut ends)
# chain: B3 chain with D17S, E24Q, D25Q, N28H
# notes: periplasmic sample
# B32: Z06933 ABD fusion protein (designed binder, not shown: large carriers; small tags and cut ends)
# chain: B3 chain with N9D, D25Y
# notes: periplasmic sample
# B33: Z06967 ABD fusion protein (designed binder, not shown: large carriers; small tags and cut ends)
# chain: B3 chain with D17A, E24D, D25H
# notes: periplasmic sample
# B34: Z06920 ABD fusion protein (designed binder, not shown: large carriers; small tags and cut ends)
# chain: B3 chain with N9H, D17T, E24D, D25Q, N28D
# notes: periplasmic sample
# B35: Z07104 ABD fusion protein (designed binder, not shown: large carriers; small tags and cut ends)
# chain: B3 chain with L10I, D17S, E24I
# notes: periplasmic sample
# B36: Z06961 ABD fusion protein (designed binder, not shown: large carriers; small tags and cut ends)
# chain: B3 chain with D17G, D25Q, N28H
# notes: periplasmic sample
# B37: Z06960 ABD fusion protein (designed binder, not shown: large carriers; small tags and cut ends)
# chain: B3 chain with L10I, D17S, D25H
# notes: periplasmic sample
# B38: Z06919 ABD fusion protein (designed binder, not shown: large carriers; small tags and cut ends)
# chain: B3 chain with N9H, D17E, D25Y
# notes: periplasmic sample
# B39: Z06984 ABD fusion protein (designed binder, not shown: large carriers; small tags and cut ends)
# chain: B3 chain with L10I, E24T, D25Y
# notes: periplasmic sample
# B40: Z07074 ABD fusion protein (designed binder, not shown: large carriers; small tags and cut ends)
# chain: B3 chain with L10I, D17E, D18E, D25F
# notes: periplasmic sample
# B41: Z07072 ABD fusion protein (designed binder, not shown: large carriers; small tags and cut ends)
# chain: B3 chain with N9Q, E24D, D25F
# notes: periplasmic sample
# B42: Z07100 ABD fusion protein (designed binder, not shown: large carriers; small tags and cut ends)
# chain: B3 chain with N9H, E24D, D25H
# notes: periplasmic sample
# B43: Z07103 ABD fusion protein (designed binder, not shown: large carriers; small tags and cut ends)
# chain: B3 chain with N9H, D17Q
# notes: periplasmic sample
# B44: Z07012 ABD fusion protein (designed binder, not shown: large carriers; small tags and cut ends)
# chain: B3 chain with L10I, D25A, N28H
# notes: periplasmic sample
# B45: Z06986 ABD fusion protein (designed binder, not shown: large carriers; small tags and cut ends)
# chain: B3 chain with D17N, D25Y
# notes: periplasmic sample
# B46: Z07090 ABD fusion protein (designed binder, not shown: large carriers; small tags and cut ends)
# chain: B3 chain with E24V, D25Q
# notes: periplasmic sample
# B47: Z06934 ABD fusion protein (designed binder, not shown: large carriers; small tags and cut ends)
# chain: B3 chain with L10I, D25S, N28H
# notes: periplasmic sample
# B48: Z06942 ABD fusion protein (designed binder, not shown: large carriers; small tags and cut ends)
# chain: B3 chain with D17S, E24D, D25Y
# notes: periplasmic sample
# B49: Z07081 ABD fusion protein (designed binder, not shown: large carriers; small tags and cut ends)
# chain: B3 chain with L10I, D17E, E24D, D25Q
# notes: periplasmic sample
# B50: Z07087 ABD fusion protein (designed binder, not shown: large carriers; small tags and cut ends)
# chain: B3 chain with N9H, D17G, D25Q, N28H
# notes: periplasmic sample
# B51: Z07082 ABD fusion protein (designed binder, not shown: large carriers; small tags and cut ends)
# chain: B3 chain with N9H, L10I, D17S, D25Q, N28H
# notes: periplasmic sample
# B52: Z06931 ABD fusion protein (designed binder, not shown: large carriers; small tags and cut ends)
# chain: B3 chain with N9H, D17T, E24I
# notes: periplasmic sample
# Columns and labels:
# [1] = target: T1, Human CAIX (carbonic anhydrase IX) (human, UniProt Q16790 59-414); experiment: ELISA screening, captured Z-ABD fusion, biotinylated human CAIX 0.25 ug/ml
# [2] = target: T1, Human CAIX (carbonic anhydrase IX); experiment: ELISA titration of biotinylated human CAIX on captured Z-ABD fusion
Binder,absorbance at 450 nm [1],Kd [2]
B1,> 1 AU,14 nM
B2,> 1 AU,9.4 nM
B3,> 1 AU,1.8 nM
B4,> 1 AU,7.9 nM
B5,> 1 AU,11 nM
B6,> 1 AU,11 nM
B7,> 1 AU,4.1 nM
B8,> 1 AU,2.5 nM
B9,> 1 AU,6.5 nM
B10,> 1 AU,15 nM
B11,> 1 AU,4.5 nM
B12,> 1 AU,3.7 nM
B13,> 1 AU,9.9 nM
B14,> 1 AU,2.7 nM
B15,> 1 AU,3.5 nM
B16,> 1 AU,2.7 nM
B17,> 1 AU,8.3 nM
B18,> 1 AU,3.4 nM
B19,> 1 AU,9.2 nM
B20,> 1 AU,6.7 nM
B21,> 1 AU,10 nM
B22,> 1 AU,5.6 nM
B23,> 1 AU,2.5 nM
B24,> 1 AU,3.6 nM
B25,> 1 AU,8.6 nM
B26,> 1 AU,2.9 nM

Binder,absorbance at 450 nm [1],Kd [2]
B27,> 1 AU,4.4 nM
B28,> 1 AU,2.7 nM
B29,> 1 AU,5.8 nM
B30,> 1 AU,1.8 nM
B31,> 1 AU,5.9 nM
B32,> 1 AU,4.3 nM
B33,> 1 AU,9 nM
B34,> 1 AU,8 nM
B35,> 1 AU,4.3 nM
B36,> 1 AU,2.7 nM
B37,> 1 AU,3.9 nM
B38,> 1 AU,2.9 nM
B39,> 1 AU,2.9 nM
B40,> 1 AU,6.8 nM
B41,> 1 AU,8.4 nM
B42,> 1 AU,6.4 nM
B43,> 1 AU,15 nM
B44,> 1 AU,4 nM
B45,> 1 AU,2.1 nM
B46,> 1 AU,4 nM
B47,> 1 AU,5.8 nM
B48,> 1 AU,1.9 nM
B49,> 1 AU,4.3 nM
B50,> 1 AU,12 nM
B51,> 1 AU,5.2 nM
B52,> 1 AU,6.1 nM
